Laboratory results published in the supplement of paper PMC7826260.
Some of the results follow. The data describe in vitro nicking of single-stranded DNA by Rep domains for 1 h at 37 °C with 3 µM enzyme; only the middle of the 90-letter strands is printed. Uncut reads are compared with the no-enzyme pool on a log2 scale; uncut sequences lie near 0, cut ones below; no hit call is given. Shares of all reads are compared; uncut strands gain when others are lost, and binding without cutting may add a little.

test system: T1, Rep nickase domain of banana bunchy top virus; test: uncleaved DNA left, log2 of reads against the no-enzyme library (log2 ratio); higher = less cleavage (more negative = more Rep cleavage of the k-mer); sequences stand for … in CTCGTCCG…ACCGGAGA
T1 sequence (residues 1-94, tag not shown): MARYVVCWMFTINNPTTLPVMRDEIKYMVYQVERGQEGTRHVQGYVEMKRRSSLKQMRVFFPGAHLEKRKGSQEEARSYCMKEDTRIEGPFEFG
Experimental: (§1)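 A pool of 90-nt single-stranded DNAs with seven random bases just before the constant AC of the nick site (name = the seven bases) was cut by 3 µM recombinant His6-SUMO-tagged Rep nickase domain (300 nM DNA, 50 mM HEPES pH 8.0, 50 mM NaCl, 1 mM MnCl2, 1 h, 37 °C, three replicates). Uncut DNA was amplified and sequenced.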

Question: How did the “uncleaved DNA left (log2)” value turn out when TCTAGCG was run?
Answer: -0.0724

Question: How did the “uncleaved DNA left (log2)” value turn out when TATCAAA was run?
Answer: 0.134

Question: How did the “uncleaved DNA left (log2)” value turn out when CTTTGAA was run?
Answer: 0.0104

Question: For AATGGGA, which “uncleaved DNA left (log2)” value is on record?
Answer: 0.0953

Question: For CCGCACT, which “uncleaved DNA left (log2)” value is on record?
Answer: 0.0552

Question: For CTAGCTA, which “uncleaved DNA left (log2)” value is on record?
Answer: -0.0137

Question: With TCGTTGC as the sequence, how does the “uncleaved DNA left (log2)” value read?
Answer: -0.223

Question: How did the “uncleaved DNA left (log2)” value turn out when CCTACCC was run?
Answer: -0.088

Question: For TAGAGCG, which “uncleaved DNA left (log2)” value is on record?
Answer: -0.00144

Question: Which “uncleaved DNA left (log2)” value does the source give for GAAGGGG here?
Answer: 0.112

Question: How did the “uncleaved DNA left (log2)” value turn out when ACGTAGA was run?
Answer: 0.111

Question: TGTCTAG was tested. Which “uncleaved DNA left (log2)” value did it give?
Answer: -0.0767

Question: CGGGACG was tested. Which “uncleaved DNA left (log2)” value did it give?
Answer: 0.148

Question: With CTCGCAC as the sequence, how does the “uncleaved DNA left (log2)” value read?
Answer: -0.00865

Question: How did the “uncleaved DNA left (log2)” value turn out when TGAATGT was run?
Answer: -0.00103

Question: With AATGCAT as the sequence, how does the “uncleaved DNA left (log2)” value read?
Answer: -0.038

Question: For ACCACAA, which “uncleaved DNA left (log2)” value is on record?
Answer: 0.089

Question: With CGTCGAT as the sequence, how does the “uncleaved DNA left (log2)” value read?
Answer: -0.0788

Question: Which “uncleaved DNA left (log2)” value does the source give for GGTAGGC here?
Answer: -0.0142

Question: GTTCGAC was tested. Which “uncleaved DNA left (log2)” value did it give?
Answer: -0.0628

Question: Which “uncleaved DNA left (log2)” value does the source give for CGGCTGA here?
Answer: 0.0733

Question: With CCTGCAG as the sequence, how does the “uncleaved DNA left (log2)” value read?
Answer: -0.227

Question: With GCCAGTA as the sequence, how does the “uncleaved DNA left (log2)” value read?
Answer: 0.098

Question: Which “uncleaved DNA left (log2)” value does the source give for CTAGGCC here?
Answer: -0.0527

Question: Which “uncleaved DNA left (log2)” value does the source give for GCCGCCC here?
Answer: -0.073

Question: For TATGTCT, which “uncleaved DNA left (log2)” value is on record?
Answer: -0.495

Question: CGAGATT was tested. Which “uncleaved DNA left (log2)” value did it give?
Answer: -0.161

Question: With TCTAACC as the sequence, how does the “uncleaved DNA left (log2)” value read?
Answer: -0.0218

Question: With ATCGCGG as the sequence, how does the “uncleaved DNA left (log2)” value read?
Answer: -0.148

Question: For AGGAGAA, which “uncleaved DNA left (log2)” value is on record?
Answer: 0.0901

Question: With GGCGATG as the sequence, how does the “uncleaved DNA left (log2)” value read?
Answer: -0.171

Question: GATATTT was tested. Which “uncleaved DNA left (log2)” value did it give?
Answer: -1.21

Question: Which “uncleaved DNA left (log2)” value does the source give for AGTAATG here?
Answer: 0.0978

Question: For GCTAGTA, which “uncleaved DNA left (log2)” value is on record?
Answer: 0.0494

Question: Which “uncleaved DNA left (log2)” value does the source give for TGCCGGA here?
Answer: 0.0418

Question: For GTCTAAG, which “uncleaved DNA left (log2)” value is on record?
Answer: 0.26

Question: For CCTCTTC, which “uncleaved DNA left (log2)” value is on record?
Answer: 0.102

Question: For CCACTGA, which “uncleaved DNA left (log2)” value is on record?
Answer: -0.0401

Question: Which “uncleaved DNA left (log2)” value does the source give for ATGACGG here?
Answer: 0.0972

Question: Which “uncleaved DNA left (log2)” value does the source give for CAGAGTC here?
Answer: -0.0723

test system: T2, Rep nickase domain of cabbage leaf curl virus; test: as above
T2 sequence (residues 1-116, tag not shown): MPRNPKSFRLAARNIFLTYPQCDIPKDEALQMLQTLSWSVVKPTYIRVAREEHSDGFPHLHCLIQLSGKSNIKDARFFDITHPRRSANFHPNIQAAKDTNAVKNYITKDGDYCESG
Experimental: as §1

Question: For TCTAGCG, which “uncleaved DNA left (log2)” value is on record?
Answer: -0.86

Question: For TATCAAA, which “uncleaved DNA left (log2)” value is on record?
Answer: 0.283

Question: With CTTTGAA as the sequence, how does the “uncleaved DNA left (log2)” value read?
Answer: -0.162

Question: For AATGGGA, which “uncleaved DNA left (log2)” value is on record?
Answer: 0.168

Question: For CCGCACT, which “uncleaved DNA left (log2)” value is on record?
Answer: -0.0589

Question: With CTAGCTA as the sequence, how does the “uncleaved DNA left (log2)” value read?
Answer: -0.0371

Question: Which “uncleaved DNA left (log2)” value does the source give for TCGTTGC here?
Answer: -0.801

Question: With CCTACCC as the sequence, how does the “uncleaved DNA left (log2)” value read?
Answer: -0.169

Question: How did the “uncleaved DNA left (log2)” value turn out when TAGAGCG was run?
Answer: -0.698

Question: For GAAGGGG, which “uncleaved DNA left (log2)” value is on record?
Answer: 0.364

Question: ACGTAGA was tested. Which “uncleaved DNA left (log2)” value did it give?
Answer: -0.191

Question: Which “uncleaved DNA left (log2)” value does the source give for TGTCTAG here?
Answer: -0.537

Question: CGGGACG was tested. Which “uncleaved DNA left (log2)” value did it give?
Answer: 0.792

Question: CTCGCAC was tested. Which “uncleaved DNA left (log2)” value did it give?
Answer: -0.163

Question: With TGAATGT as the sequence, how does the “uncleaved DNA left (log2)” value read?
Answer: 0.0907

Question: For AATGCAT, which “uncleaved DNA left (log2)” value is on record?
Answer: -0.139

Question: For ACCACAA, which “uncleaved DNA left (log2)” value is on record?
Answer: -0.156

Question: Which “uncleaved DNA left (log2)” value does the source give for CGTCGAT here?
Answer: 0.076

Question: For GGTAGGC, which “uncleaved DNA left (log2)” value is on record?
Answer: 0.522

Question: GTTCGAC was tested. Which “uncleaved DNA left (log2)” value did it give?
Answer: 0.346

Question: With CGGCTGA as the sequence, how does the “uncleaved DNA left (log2)” value read?
Answer: 0.0314

Question: For CCTGCAG, which “uncleaved DNA left (log2)” value is on record?
Answer: -0.946

Question: How did the “uncleaved DNA left (log2)” value turn out when GCCAGTA was run?
Answer: 0.27

Question: How did the “uncleaved DNA left (log2)” value turn out when CTAGGCC was run?
Answer: 0.105

Question: GCCGCCC was tested. Which “uncleaved DNA left (log2)” value did it give?
Answer: 0.11

Question: How did the “uncleaved DNA left (log2)” value turn out when TATGTCT was run?
Answer: -1.56

Question: How did the “uncleaved DNA left (log2)” value turn out when CGAGATT was run?
Answer: 0.0277

Question: For TCTAACC, which “uncleaved DNA left (log2)” value is on record?
Answer: -0.261

Question: With ATCGCGG as the sequence, how does the “uncleaved DNA left (log2)” value read?
Answer: -0.149

Question: With AGGAGAA as the sequence, how does the “uncleaved DNA left (log2)” value read?
Answer: 0.342

Question: GGCGATG was tested. Which “uncleaved DNA left (log2)” value did it give?
Answer: 0.0276

Question: Which “uncleaved DNA left (log2)” value does the source give for GATATTT here?
Answer: 0.213

Question: AGTAATG was tested. Which “uncleaved DNA left (log2)” value did it give?
Answer: -0.14

Question: For GCTAGTA, which “uncleaved DNA left (log2)” value is on record?
Answer: 0.0381

Question: TGCCGGA was tested. Which “uncleaved DNA left (log2)” value did it give?
Answer: 0.118

Question: With GTCTAAG as the sequence, how does the “uncleaved DNA left (log2)” value read?
Answer: 0.379

Question: With CCTCTTC as the sequence, how does the “uncleaved DNA left (log2)” value read?
Answer: 0.066

Question: With CCACTGA as the sequence, how does the “uncleaved DNA left (log2)” value read?
Answer: 0.046

Question: How did the “uncleaved DNA left (log2)” value turn out when ATGACGG was run?
Answer: 0.256

Question: How did the “uncleaved DNA left (log2)” value turn out when CAGAGTC was run?
Answer: -0.0834

test system: T3, Rep nickase domain of chickpea chlorotic dwarf virus; test: as above
T3 sequence (residues 1-124, tag not shown): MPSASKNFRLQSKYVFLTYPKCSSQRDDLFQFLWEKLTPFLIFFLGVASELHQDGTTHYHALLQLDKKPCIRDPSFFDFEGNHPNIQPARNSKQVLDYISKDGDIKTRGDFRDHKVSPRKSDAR
Experimental: as §1

Question: For TCTAGCG, which “uncleaved DNA left (log2)” value is on record?
Answer: 0.555

Question: For TATCAAA, which “uncleaved DNA left (log2)” value is on record?
Answer: 0.018

Question: How did the “uncleaved DNA left (log2)” value turn out when CTTTGAA was run?
Answer: -0.746

Question: How did the “uncleaved DNA left (log2)” value turn out when AATGGGA was run?
Answer: 0.703

Question: How did the “uncleaved DNA left (log2)” value turn out when CCGCACT was run?
Answer: -1.55

Question: How did the “uncleaved DNA left (log2)” value turn out when CTAGCTA was run?
Answer: -0.743

Question: With TCGTTGC as the sequence, how does the “uncleaved DNA left (log2)” value read?
Answer: -0.236

Question: CCTACCC was tested. Which “uncleaved DNA left (log2)” value did it give?
Answer: -1.92

Question: TAGAGCG was tested. Which “uncleaved DNA left (log2)” value did it give?
Answer: -0.593

Question: How did the “uncleaved DNA left (log2)” value turn out when GAAGGGG was run?
Answer: 0.685

Question: How did the “uncleaved DNA left (log2)” value turn out when ACGTAGA was run?
Answer: -0.0526

Question: Which “uncleaved DNA left (log2)” value does the source give for TGTCTAG here?
Answer: -0.825

Question: How did the “uncleaved DNA left (log2)” value turn out when CGGGACG was run?
Answer: 1.66

Question: How did the “uncleaved DNA left (log2)” value turn out when CTCGCAC was run?
Answer: -0.366

Question: Which “uncleaved DNA left (log2)” value does the source give for TGAATGT here?
Answer: 0.198

Question: Which “uncleaved DNA left (log2)” value does the source give for AATGCAT here?
Answer: -0.128

Question: Which “uncleaved DNA left (log2)” value does the source give for ACCACAA here?
Answer: -0.307

Question: CGTCGAT was tested. Which “uncleaved DNA left (log2)” value did it give?
Answer: 0.262

Question: With GGTAGGC as the sequence, how does the “uncleaved DNA left (log2)” value read?
Answer: 1.3

Question: How did the “uncleaved DNA left (log2)” value turn out when GTTCGAC was run?
Answer: 0.793

Question: For CGGCTGA, which “uncleaved DNA left (log2)” value is on record?
Answer: 0.674

Question: With CCTGCAG as the sequence, how does the “uncleaved DNA left (log2)” value read?
Answer: -0.77

Question: How did the “uncleaved DNA left (log2)” value turn out when GCCAGTA was run?
Answer: 0.119

Question: How did the “uncleaved DNA left (log2)” value turn out when CTAGGCC was run?
Answer: 0.334

Question: Which “uncleaved DNA left (log2)” value does the source give for GCCGCCC here?
Answer: 0.198

Question: Which “uncleaved DNA left (log2)” value does the source give for TATGTCT here?
Answer: -2.75

Question: For CGAGATT, which “uncleaved DNA left (log2)” value is on record?
Answer: -1.2

Question: Which “uncleaved DNA left (log2)” value does the source give for TCTAACC here?
Answer: -1.31

Question: How did the “uncleaved DNA left (log2)” value turn out when ATCGCGG was run?
Answer: 0.189

Question: AGGAGAA was tested. Which “uncleaved DNA left (log2)” value did it give?
Answer: 1.2

Question: For GGCGATG, which “uncleaved DNA left (log2)” value is on record?
Answer: 0.492

Question: With GATATTT as the sequence, how does the “uncleaved DNA left (log2)” value read?
Answer: -1.02

Question: AGTAATG was tested. Which “uncleaved DNA left (log2)” value did it give?
Answer: 0.503

Question: With GCTAGTA as the sequence, how does the “uncleaved DNA left (log2)” value read?
Answer: 0.129

Question: For TGCCGGA, which “uncleaved DNA left (log2)” value is on record?
Answer: 0.422

Question: Which “uncleaved DNA left (log2)” value does the source give for GTCTAAG here?
Answer: 0.757

Question: With CCTCTTC as the sequence, how does the “uncleaved DNA left (log2)” value read?
Answer: -0.393

Question: CCACTGA was tested. Which “uncleaved DNA left (log2)” value did it give?
Answer: 0.308

Question: With ATGACGG as the sequence, how does the “uncleaved DNA left (log2)” value read?
Answer: 0.897

Question: How did the “uncleaved DNA left (log2)” value turn out when CAGAGTC was run?
Answer: -0.165
